Measured values reported in PubChem BioAssay AID485294 (National Center for Advancing Translational Sciences (NCATS), 2010).
The campaign covered roughly 370,000 compounds. About 150 (0.041%) were called active. This list was built around the results that the source calls inconclusive (neither active nor inactive); the mix of calls is not that of the screen. Calls follow the shape of the dose curve; as a rule, active = well fitted inhibition curve with a large enough effect; inconclusive = small, poorly fitted or top-dose-only effect; inactive = flat fitted curve, though single readings scatter. Potencies of inconclusive entries are left out as doubtful fits.

biological target: Beta-lactamase (Escherichia coli (strain K12)) (UniProt P00811); assay: qHTS Inhibitors of AmpC Beta-Lactamase (assay with detergent); details: AmpC hydrolysis of nitrocefin, absorbance 480 nm, 0.01% Triton; series mostly up to 114 µM; also: nearly all actives have a fitted effect of over 25% in size
UniProt P00811, sequence (P00811 whole entry, looked up): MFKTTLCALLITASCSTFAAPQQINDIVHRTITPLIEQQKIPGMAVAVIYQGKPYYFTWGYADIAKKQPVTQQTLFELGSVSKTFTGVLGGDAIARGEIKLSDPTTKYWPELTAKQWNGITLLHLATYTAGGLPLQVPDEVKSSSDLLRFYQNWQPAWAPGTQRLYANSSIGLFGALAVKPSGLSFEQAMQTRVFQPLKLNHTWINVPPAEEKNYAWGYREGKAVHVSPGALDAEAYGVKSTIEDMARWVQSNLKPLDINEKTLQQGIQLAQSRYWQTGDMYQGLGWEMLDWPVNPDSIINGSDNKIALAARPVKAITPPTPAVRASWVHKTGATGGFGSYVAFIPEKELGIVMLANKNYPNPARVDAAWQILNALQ
Outline: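 AmpC (5.3 nM in the dispensed reagent) in 20 mM phosphate pH 7.0 with 0.01% (detergent screen) or 0.0001% Triton X-100 was preincubated with compounds for 15 min at room temperature. Nitrocefin was then added from an 800 uM solution, and hydrolysis was followed at 480 nm.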
Potency is read from the fitted curve at half-maximal effect; tags tell the direction and shape of the fitted curve.

Row | SMILES | Potency
1 | O=C(Cn1c(=O)n(Cc2ccco2)c(=O)c2c3c(sc21)CCCC3)Nc1ccccc1 | inconclusive [inhibitor, partial curve]
2 | Cc1ccc(NC(=O)C2C3C=CC4(CN(Cc5cccnc5)C(=O)C24)O3)cc1 (centres undefined) | inconclusive [inhibitor, full curve, poor fit]
3 | Oc1ccc(-c2csc(Nc3ncccn3)n2)c(O)c1 | inconclusive [inhibitor, full curve, poor fit]
4 | O=C(/C=C/c1ccccc1)N1CCN(c2cccc(Cl)n2)CC1 | inconclusive [inhibitor, partial curve, poor fit]
5 | Cc1cc2nc(/N=C(\N)NC(=O)C(C)C)nc(C)c2cc1C | inactive
6 | CCOC(=O)C1C(=O)Oc2ccc3ccccc3c2C1C1CCOC1=O (centres undefined) | inconclusive [inhibitor, full curve]
7 | Clc1ccc2c(c1)C(c1ccccc1Cl)=NCc1nnc(N3CCN(CCOc4ccccc4)CC3)n1-2 | inconclusive [inhibitor, full curve, poor fit]
8 | CCOC(=O)Cn1cc(C(=O)c2ccccc2)c2ccccc21 | inconclusive [inhibitor, partial curve, poor fit]
9 | CNC(=O)CSCCn1c(SCC(=O)NC)nc2ccccc2c1=O | inactive
10 | O=C1Nc2ccccc2C(O)(C(=O)NCc2ccc3c(c2)OCO3)N1c1ccc(Cl)c(Cl)c1 (centres undefined) | inconclusive [inhibitor, full curve, poor fit]
11 | C/C(=N/NC(=O)c1ccc(C)s1)c1cccc(NC(=O)COc2ccc(Cl)cc2C)c1 | inconclusive [inhibitor, full curve]
12 | CC(C)COP(=O)(c1ccc(N(C)C)cc1)C(O)c1ccccc1F (centres undefined) | inactive
13 | O=C(NCCS(=O)(=O)NCc1ccco1)c1ccccc1 | inconclusive [inhibitor, partial curve, poor fit]
14 | Cc1ccccc1OCCCC(=O)NC1CCCCC1 | inconclusive [inhibitor, full curve, poor fit]
15 | O=C1NC(=O)c2cc(NC(=O)C3CCCCC3)ccc21 | inconclusive [inhibitor, single point]
16 | CC(C)(C)N=Cc1c(O)ccc2oc3c(c12)CCCC3 | inactive
17 | Cc1ccc2c(C)c(C(=O)N(C)C(C)c3ccon3)oc2c1C (centres undefined) | inconclusive [inhibitor, full curve, poor fit]
18 | CN(c1ccccc1C(=O)NCc1ccco1)S(C)(=O)=O | inactive
19 | O=C(CCCN1C(=O)c2cccnc2C1=O)N1CC(=O)N(CCc2ccccc2)C(=O)C1 | inconclusive [inhibitor, partial curve]
